From paper PMC5540273 (PLoS ONE, 2017)
For some of these results: Most of the strong results are listed elsewhere, so they are rarer here than in the full data. Only a part is listed here, and it is no random draw.

Experiments:
Settings in all cases: concentration: 1 μM,replicates: in singlicate; n = 1
LZK = tested on: T1, LZK
T1 construct: gene MAP3K13

MAK = tested on: MAK
MAP3K15 = tested on: MAP3K15
MAP3K1 = tested on: MAP3K1
MAP3K2 = tested on: MAP3K2
MAP3K3 = tested on: MAP3K3
MAP3K4 = tested on: MAP3K4
MAP4K2 = tested on: MAP4K2
MAP4K3 = tested on: MAP4K3
MAP4K4 = tested on: MAP4K4
MAP4K5 = tested on: MAP4K5
MAPKAPK2 = tested on: MAPKAPK2
MAPKAPK5 = tested on: MAPKAPK5
MARK1 = tested on: MARK1
MARK2 = tested on: MARK2
MARK3 = tested on: MARK3
MARK4 = tested on: MARK4
MAST1 = tested on: MAST1
MEK1 = tested on: T2, MEK1
T2 construct: gene MAP2K1

MEK2 = tested on: T3, MEK2
T3 construct: gene MAP2K2
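Also: KINOMEscan kinase panel screen.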

Row | Compound | %Inh (LZK) | %Inh (MAK) | %Inh (MAP3K15) | %Inh (MAP3K1) | %Inh (MAP3K2) | %Inh (MAP3K3) | %Inh (MAP3K4) | %Inh (MAP4K2) | %Inh (MAP4K3) | %Inh (MAP4K4) | %Inh (MAP4K5) | %Inh (MAPKAPK2) | %Inh (MAPKAPK5) | %Inh (MARK1) | %Inh (MARK2) | %Inh (MARK3) | %Inh (MARK4) | %Inh (MAST1) | %Inh (MEK1) | %Inh (MEK2)
1 | O=C1NC(=O)C(c2ccc(Cl)cc2)=C1Nc1cccc(O)c1 [SB-333613] | 9% | 0% | 23% | 26% | 24% | 26% | 0% | 37% | 1% | 18% | 27% | 2% | 0% | 11% | 16% | 0% | 21% | 41% | 16% | 10%
2 | O=C1NC(=O)C(c2ccc(Cl)cc2)=C1Nc1cccc(C(=O)O)c1 [SB-360737] | 0% | 11% | 19% | 19% | 1% | 0% | 16% | 0% | 0% | 6% | 0% | 10% | 0% | 0% | 0% | 0% | 0% | 9% | 28% | 0%
3 | O=C1NC(=O)c2c1c(-c1ccccc1)cc1[nH]c3ccc(O)cc3c21 | 26% | 6% | 84% | 28% | 57% | 90.8% | 59% | 35% | 53% | 98.9% | 55% | 0% | 0% | 56% | 27% | 47% | 54% | 0% | 61% | 59%
4 | O=C1NC(=O)C(c2ccccc2Cl)=C1Nc1cccc(C(=O)O)c1 [SB-390526] | 0% | 0% | 0% | 23% | 0% | 3% | 0% | 0% | 0% | 0% | 0% | 36% | 0% | 0% | 0% | 0% | 0% | 0% | 0% | 7%
5 | O=C1NC(=O)C(c2ccc(Cl)cc2)=C1Nc1ccccc1 [SB-317661] | 0% | 0% | 5% | 0% | 30% | 0% | 0% | 0% | 0% | 0% | 0% | 0% | 22% | 16% | 0% | 8% | 23% | 4% | 21% | 45%
6 | CSc1ccc(NC2=C(c3cccc(Cl)c3)C(=O)NC2=O)cc1 [SB-341528] | 0% | 0% | 0% | 0% | 6% | 0% | 0% | 1% | 0% | 0% | 0% | 12% | 5% | 12% | 25% | 35% | 0% | 7% | 0% | 6%
7 | Cc1ccc(C)c(Oc2nccc(-c3c(-c4ccc(F)cc4)ncn3C3CCNCC3)n2)c1.O=C(O)C(F)(F)F.O=C(O)C(F)(F)F.O=C(O)C(F)(F)F [SB-284852] | 0% | 0% | 0% | 0% | 0% | 16% | 17% | 0% | 0% | 100% | 100% | 0% | 0% | 3% | 0% | 23% | 36% | 0% | 4% | 39%
8 | COc1cccc(C2=C(Nc3ccc(SC)cc3)C(=O)NC2=O)c1 [SB-331032] | 0% | 0% | 0% | 0% | 40% | 23% | 0% | 18% | 4% | 0% | 0% | 0% | 5% | 0% | 24% | 0% | 8% | 32% | 23% | 22%
